Measured values reported in PubChem BioAssay (NCATS).
This list was built around the results that the source calls inconclusive (neither active nor inactive); the mix of calls is not that of the screen. Potencies of inconclusive entries are left out as doubtful fits. Calls of active or inactive are those of the source. Calls follow the shape of the dose curve; as a rule, active = well fitted inhibition curve with a large enough effect; inconclusive = small, poorly fitted or top-dose-only effect; inactive = flat fitted curve, though single readings scatter.
Potency is read from the fitted curve at half-maximal effect; tags tell the direction and shape of the fitted curve.

What follows are compounds tested against Fructose-bisphosphate aldolase (Giardia intestinalis (strain ATCC 50803 / WB clone C6)) (UniProt A8B2U2) (assay: qHTS Assay for Inhibitors of Fructose-1,6-bisphosphate Aldolase from Giardia Lamblia: Primary screen confirmation (AID 2787; also: nearly all actives have a fitted effect of over 45% in size)). Settings: purified Giardia aldolase enzyme activity; series mostly up to 57.5 µM.
Chain of UniProt A8B2U2 (A8B2U2 whole entry, looked up): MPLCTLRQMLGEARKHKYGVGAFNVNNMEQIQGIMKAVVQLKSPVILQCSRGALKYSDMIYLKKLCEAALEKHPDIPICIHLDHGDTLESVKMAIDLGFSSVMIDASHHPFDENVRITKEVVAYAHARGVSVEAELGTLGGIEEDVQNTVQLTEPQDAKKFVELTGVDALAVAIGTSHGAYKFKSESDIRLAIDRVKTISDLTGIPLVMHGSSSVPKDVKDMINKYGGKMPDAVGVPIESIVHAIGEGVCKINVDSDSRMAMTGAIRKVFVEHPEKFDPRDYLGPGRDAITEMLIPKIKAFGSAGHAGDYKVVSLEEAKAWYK
In short: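 Confirmation of primary hits by qHTS up to 57.5 uM final compound. Enzyme at 40 nM with 30 uM ZnCl2, 10 min RT pre-incubation, then substrate/coupling/resorufin-forming detection mix for 20 min before fluorescence read at 525/598 nm.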
`Cc1c(N2C(=O)/C(=C3\C(=O)N(CC(=O)O)c4ccccc43)SC2=S)c(=O)n(-c2ccccc2)n1C` was tested, and the Potency was inconclusive [inhibitor, partial curve].
With `Cc1c(N=C2C=C(Br)C(=O)C(Br)=C2)c(=O)n(-c2ccccc2)n1C` the Potency was inconclusive [inhibitor, partial curve].
In the case of `COc1ccc(CCn2c(NN=C(C)C)nc3c2c(=O)[nH]c(=O)n3C)cc1`, the Potency was active: 12.6 µM.
For `S=C(Nc1ccccn1)c1ccccn1`, the Potency was inconclusive [inhibitor, partial curve].
In the case of `COc1cc(OC)c(C2CC(=O)N3CN(C)CSC3=C2C#N)cc1OC` (stereo not given), the Potency was inconclusive [inhibitor, partial curve, poor fit].
`CCc1nnc(N/N=C\c2ccc(OC(C)=O)c(OC)c2)n1N` was tested, and the Potency was active: 3.66 µM.
With `CCCCOc1c(Br)cc(CNCCCN2CCOCC2)cc1OC` the Potency was “inactive”.
For `Cc1cnc(C(=O)Nc2nccs2)cn1`, the Potency was “inactive”.
For `O=C(Oc1ccc[nH]c1=O)c1cccc(Cl)c1`, the Potency was active: 0.517 µM.
`Nc1cc2nc3ccccc3oc-2cc1=O` was tested, and the Potency was inconclusive [inhibitor, partial curve].
`Nn1cnnc1N/N=C/c1ccc(F)cc1` was tested, and the Potency was inconclusive [inhibitor, partial curve].
`O=c1nc(N/N=C/c2ccco2)cn[nH]1` was tested, and the Potency was “inactive”.
`O=C(O)c1ccc(/C=C/c2ccc3cccc(O)c3n2)cc1` was tested, and the Potency was active: 3.98 µM.
With `Oc1ccc(/C=N/Nc2ccnc3cc(Cl)ccc23)c(O)c1O` the Potency was inconclusive [inhibitor, full curve].
In the case of `CC(=O)Nc1ccc(-c2ccc(NC(C)=O)c(O)c2)cc1O`, the Potency was active: 2.59 µM.

Each compound was assayed against Fructose-bisphosphate aldolase A (Oryctolagus cuniculus) (UniProt P00883) (assay: qHTS Assay for Inhibitors of Fructose-1,6-bisphosphate Aldolase from Giardia Lamblia: Rabbit FBPA Selectivity (AID 2794; also: nearly all actives have a fitted effect of over 60% in size)). Settings: Rabbit muscle FBPA enzyme inhibition, selectivity counter-screen; series mostly up to 57.5 µM.
Chain of UniProt P00883 (P00883 whole entry, looked up): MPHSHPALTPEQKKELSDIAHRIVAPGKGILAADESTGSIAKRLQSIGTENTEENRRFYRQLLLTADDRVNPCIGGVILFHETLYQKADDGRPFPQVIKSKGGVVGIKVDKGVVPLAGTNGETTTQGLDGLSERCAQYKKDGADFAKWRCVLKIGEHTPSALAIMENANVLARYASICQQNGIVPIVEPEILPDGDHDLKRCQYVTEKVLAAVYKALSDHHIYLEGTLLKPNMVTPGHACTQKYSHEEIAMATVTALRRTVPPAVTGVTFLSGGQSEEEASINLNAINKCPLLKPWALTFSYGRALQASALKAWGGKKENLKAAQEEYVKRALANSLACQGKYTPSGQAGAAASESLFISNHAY
In short: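 Cpd up to 57.5 uM final + coupling enzyme reagent, 10 min RT; add substrate/coupling system/AmpLite Red; 20 min RT; read fluor. 525/598 nm. Rabbit FBPA.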
In the case of `CCc1nnc(NC(=O)CN2CCCC(C)C2)s1` (stereo not given), the Potency was “inactive”.
For `COc1ccccc1NC(=S)N(Cc1ccc(C)cc1)Cc1ccccn1`, the Potency was “inactive”.
For `C/C(CC(=O)Nc1ccc(Cl)cc1C(F)(F)F)=N\NC(N)=S`, the Potency was “inactive”.
For `CN1CCO/C1=C(\C(Cl)=C(Cl)Cl)[N+](=O)[O-]`, the Potency was “inactive”.
`O=C1NC(C(=O)O)=CC(c2ccc([N+](=O)[O-])cc2)N1` (stereo not given) was tested, and the Potency was “inactive”.
For `COc1ccc(Br)cc1CN(C)CC(=O)NCc1ccc(F)cc1`, the Potency was “inactive”.
In the case of `Cn1c(SCC(=O)c2ccccc2)nnc1-c1cnccn1`, the Potency was “inactive”.
In the case of `Cc1ccc(NC(=O)c2sc(=S)n(-c3cc(C)ccc3F)c2N)cc1`, the Potency was inconclusive [inhibitor, single point].
`O=[N+]([O-])c1ccccc1CN1CCN(Cc2c[nH]c3ccccc23)CC1` was tested, and the Potency was “inactive”.
With `COc1ccc(CCn2c(NN)nc3c2c(=O)[nH]c(=O)n3C)cc1` the Potency was inconclusive [inhibitor, partial curve].
With `Cc1snnc1C(=O)NC(=S)Nc1ccccc1` the Potency was “inactive”.
In the case of `O=C(c1ccc2c(=O)n(C3CCCC3)c(=S)[nH]c2c1)N1CCCCCC1`, the Potency was “inactive”.
For `CC1=NN(C(N)=S)C(=O)C1N=Nc1cccc(C(=O)O)c1` (stereo not given), the Potency was “inactive”.
`NNc1ccc(Cl)nn1` was tested, and the Potency was “inactive”.
In the case of `CCOc1ccc(CN(C)CC(=O)Nc2cccc(S(=O)(=O)N(C)c3ccccc3)c2)cc1`, the Potency was “inactive”.
For `Cn1c(=O)[nH]c(=O)c2c1[nH]c(=S)n2CCCc1ccccc1`, the Potency was active: 35.5 µM.
In the case of `Cc1cccc(NNC(N)=S)c1`, the Potency was “inactive”.
With `COc1cccc(NC(=O)CN(C)CC(=O)Nc2ccc(C)cc2Cl)c1` the Potency was “inactive”.
`COc1cc(/C=C2\SC(c3ccccc3)=NC2=O)cc(Cl)c1O` was tested, and the Potency was “inactive”.
In the case of `COc1cc(C(c2c(C)[nH][nH]c2=O)c2c(C)[nH][nH]c2=O)cc([N+](=O)[O-])c1O`, the Potency was inconclusive [inhibitor, partial curve].
With `Cn1nnc(NC(=S)NC(=O)c2ccccc2)n1` the Potency was “inactive”.
For `Cc1ccc(C(=O)CSc2ncn[nH]2)cc1`, the Potency was “inactive”.
In the case of `CN(C)CCCNS(=O)(=O)c1ccc(N2CCN(Cc3ccc4c(c3)OCO4)CC2)c([N+](=O)[O-])c1`, the Potency was “inactive”.
`COc1cc(N=c2ssnc2Cl)cc(OC)c1OC` was tested, and the Potency was active: 31.6 µM.
With `N#CC1=C2SCN(c3ccc(F)cc3)CN2C(=O)CC1c1cccc(F)c1` (stereo not given) the Potency was inconclusive [inhibitor, partial curve].
